US20210206845A1 (Chugai, published 2021)

B1: EEIVHC002/EEIVL (antibody, human IgG1, kappa)
heavy: QMQLVESGGGVVQPGRSLRLSCTASGFTFSNNGMHWVRQAPGKGLEWVAVIWFDGMNKFYVDSVKGRFTISRDNSKNTLYLEMNSLRAEDTAIYYCAREGDGSGIYYYYGMDVWGQGTTVTVGLSGRSDNHGSS[sequence of human IgG1 constant region not given]
light: [sequence of about 100 residues not given][sequence of about 120 residues not given]
notes: IgG1
B2: EEIVHC003/EEIVL (antibody, human IgG1, kappa)
heavy: QMQLVESGGGVVQPGRSLRLSCTASGFTFSNNGMHWVRQAPGKGLEWVAVIWFDGMNKFYVDSVKGRFTISRDNSKNTLYLEMNSLRAEDTAIYYCAREGDGSGIYYYYGMDVWGQGTTVTVSGLSGRSDNHGSSS[sequence of human IgG1 constant region not given]
light: [sequence of about 100 residues not given][sequence of about 120 residues not given]
notes: IgG1
B3: EEIVHC005/EEIVL (antibody, human IgG1, kappa)
heavy: QMQLVESGGGVVQPGRSLRLSCTASGFTFSNNGMHWVRQAPGKGLEWVAVIWFDGMNKFYVDSVKGRFTISRDNSKNTLYLEMNSLRAEDTAIYYCAREGDGSGIYYYYGMDVWGQGTTVTVGGSGLSGRSDNHGSSGSS[sequence of human IgG1 constant region not given]
light: [sequence of about 100 residues not given][sequence of about 120 residues not given]
notes: IgG1
B4: EEIVHC004/EEIVL (antibody, human IgG1, kappa)
heavy: QMQLVESGGGVVQPGRSLRLSCTASGFTFSNNGMHWVRQAPGKGLEWVAVIWFDGMNKFYVDSVKGRFTISRDNSKNTLYLEMNSLRAEDTAIYYCAREGDGSGIYYYYGMDVWGQGTTVTVGSGLSGRSDNHGSSSS[sequence of human IgG1 constant region not given]
light: [sequence of about 100 residues not given][sequence of about 120 residues not given]
notes: IgG1

Each binder was assayed against T1, human CXCL10 (human, UniProt P02778 22-98) (assay: Biacore SPR, antibody captured on protein A CM3 chip, 6.25/3.125/1.563/0.781 nM human CXCL10 as analyte, 25 C).
T1 construct: Both are treated as the same protein; also called hCXCL10; IP-10

Binding result, binds:
B1, B2, B3, B4
